Read counts are not given, so values of variants with three or more changes are uncertain.
B1: CPEB3 Ribozyme (parent)
chain: UAACAGGGGGCCACAGCAGAAGCGUUCACGUCGCAGCCCCUGUCAGAUUCUGGUGAAUCUGCGAAUUCUGCUGUAUAUCUC

Variants of: B1
Experiment: self-cleavage, relative activity (ratio to wild type); higher = more cleavage; in vitro, sequencing
How it was run: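 For each CPEB3 ribozyme variant, relative activity is its cleaved/total read fraction divided by the unmutated ribozyme's. Barcoded error-prone PCR libraries were transcribed by T7 RNA polymerase (5 hours, 37°C) and held in DNase I for 15 min before an EDTA stop, with cleavage occurring throughout. Template-switching reverse transcription and Illumina sequencing were used to read the RNAs. A 5-read minimum applied, and results are the mean of three batches.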

| Variant | self-cleavage |
| --- | --- |
| UAACAGGGGGCCGCAGCAGAAGCGUUAACGUCGCAGCCCCUGUCAGAUUCUGGUGCAUCUGCGAAUUCUGCUGUAUACCUC | 0.06 |
| UAACAGGGGGCCGCAGCAGAAGGGUACACGUCGCAGCCCCUGUCAGAUUCAGGUGAAUCAGCGAAUUCAGCCGUAUAUCUC | 0.14 |
| UAACAGGGGGCCGCAGCAGAAGUGUUCACGUCGCAGCUCCUGUCAGAUUCUGGCGAAUCUGCGAAUUCUGCCGUAUAUCUC | 0.11 |
| UAACAGGGGGCCGCAGCAGAAGCGUUCAUGUCGCAGCCCCUGUCAGAUUCUGGUGAAUCUCCGAAUUCUGCUGUAUACCUC | 0.29 |
| UAACAGGGGGCCGCAGCAGAAGUGUUCACGUCGCUGCCCCGGUCUGAUUCUGGUGAAUCUGCGAAUUCUGCUGUAUAUCUC | 0.06 |
| UAACAGGGGGCCGCAGCAGAAGCGUUCACGUUGCAGCUCCCGUCAGAUUCUGGUGAUUCUGCGAAUUCCGCUGUAUAUCUC | 0.08 |
| UAACAGGGGGCCGCAGCAGAAGGGUCCACGUCGCAACCCCUGUCAGAUUCUGGUUAAUCUGCGAAUUCUGCUGUAUAUCUC | 0.05 |
| UAACAGGGGGCCGCAGCAGAAGGGUCCACGUCGCAACCCCUGUCAGAUUCUGGUGAAUCUGCGAAUUCUGCUGUAUAUCUC | 0.19 |
| UAACAGGGGGCCGCAGCAGAAGCGUUCACGUGGCCGCCCCUGUCUGAUUCUGGUGAAUCAUCGAAUUCUGCUGUAUAUCUC | 0.06 |
| UAACAGGGGGCCGCAGCAGAAGUGUACACGUCGCAGCCCCUGUCGGAUACUGGUGAAUCUGCGAAUUCUGCUGGAUAUCUC | 0.14 |
| UAACAGGGGGCCGCAGCAGAAGCGUUCAUGUCGCAGCCCCCGCCAGAUUCUGGUGAAUCUGCGAAUUCUGCUGUAUAUCUC | 0.1 |
| UAACAGGGGGCCGCAGCAGAAGGGUACACGUCGCAGCCCCUGUCAGAUUCUGGUGAAUCUGCGAAUUCUGCUGCAUAUCUC | 0.63 |
| UAACAGGGGGCCGCAGCAGAAGUGUUCACGUCGCAGCCCCUGUCAGGUUCCGGUGAAUCUGCGAAUUCUGCUGUAUAACUC | 0.16 |
| UAACAGGGGGCCGCAGCAGAAGCGUUCAGGUCGCGGCCCCUGUCAGAUUCUGGUGAAUCUGCGAAUUCUGCUGUAUAUCGC | 0.18 |
| UAACAGGGGGCCGCAGCAGAAGCGUUAACGUCGCAGCCCCUGUCAGAUUCUGGUGAAUCUGCGAAUACUGCUGUAUAUCUC | 0.17 |
| UAACAGGGGGCCGCAGCAGAAGAGCUCACGUCGCAGCCCCUGUCGGAUUCAGGUGAAUCUGCGAAUUCUGCUGUAUAACUC | 0.28 |
| UAACAGGGGGCCGCAGCAGAAGUGUUCACGUCGCAGCCCCUGACGGAUUCGGGUGAAUCUGCGAAUUCUGCUGUAUAUCUC | 0.09 |

| Variant | self-cleavage |
| --- | --- |
| UAACAGGGGGCCGCAGCAGAAGGGUUCACAUCGCAGCUCCUGUCAGAUUCUGGUGAAUCUGCGAAUUCGGCUGCAUAUCUC | 0.16 |
| UAACAGGGGGCCGCAGCAGAAGCGUUAACGUCGCAGCCCCUGUCAGAUUCUGGUGCAUCUGCGAAUUCUGCCUUAUAUCUC | 0.04 |
| UAACAGGGGGCCGCAGUAGAAGCGUUCACGUCGCAGCCCCUGUCAGAUUCCGGUGAAUCUACGAAUUCUGCUGUAUAUCUC | 0.11 |
| UAACAGGGGGCCGCAGCAGAAGGGUUCAUGUCGCAGCCCCUGUCAGUUUCUGGUCAAUCUGCGAAUUCUGCGGUAUAUCUC | 0.04 |
| UAACAGGGGGCCGCAGCAGAAGGGUUCACGUCGCAGCCCCUGUCAGAUUCUGGUGAAUCUGCGAAUUCUGCCGUAUAUCUC | 0.05 |
| UAACAGGGGGCCGCAGUAGAAGCGUUCACGUCGCAGCCCCUGUCAGAUUCUGGUGAAUCUGCGAAUUCAGCUGUAUACCUC | 0.29 |
| UAACAGGGGGCCGCAGCAGAAGUGUUCAAGUCGCAUCCCCUGCCAGAUUCUGGUGAAUCUGCGAACUCUGCUGUAUAUCUC | 0.07 |
| UAACAGGGGGCCGCAGCAGAAGCGUUCAGGUCGCAGCCCCCGUCAGAUUCUGGUGAUUCUGCGAAUUCUGCUGUAUAUCUC | 0.31 |
| UAACAGGGGGCCGCAGCAGAAGCGUUCAUGUCGCAGCCCCUGUCUGAUUCUGGCGAGUCUGCGAAUUCUGCUGUAUAUCUC | 0.05 |
| UAACAGGGGGCCGCAGCAGAAGCGUUCAUGUCGCGGCCCCUGUCAGAUUCUGGUGAAUCUGCGAAUUCUGCUGUAUAUCUC | 0.43 |
| UAACAGGGGGCCGCAGCAGAAGAGUUCACGUCGCAGCCCCUGUCAGAUUCUGGUGAAUCUGCGAAUUCUGCUGUACAUCUC | 0.27 |
| UAACAGGGGGCCGCAGCAGAAGCGUUCAUCUCGCGGCCCCUGUCAGAUUCUGGUGAACCUGCGAAUUCUGCUGUAUAUCUC | 0.06 |
| UAACAGGGGGCCGCAGCAGAAGGGAUCACGUCGCAGCCCCUGUCAGAUUCUGGUGUAUCUGCGAAUUCAGCUGUAUAUCUC | 0.1 |
| UAACAGGGGGCCGCAGCAGAAGCGUUCACGUAGCAGCCCCUGCCAGAUUCUGGAGAAUCUGCGAACUCUGCUGUAUAUCUC | 0.09 |
| UAACAGGGGGCCGCAGCAGAAGCGUUUACGUCGCUGCCCCUGUCAGAUUCUGGUGAAUCUGCGAAUUCUGCUGUAUAUCUC | 0.08 |
| UAACAGGGGGCCGCAGCAGAAGGGUUCACGUCGCAGCCCCUGUCAGAUUCUGGUGAAUCUGCGAACUCGGCUGCAUAUCUC | 0.23 |
| UAACAGGGGGCCGCAGCAGAAGCGUUCACGUAGCAGCCCCUGACAGAUUCUGGUGAGUCUGCGAAUUCUGCUGUAUAUCCC | 0.11 |

Source: the RNAGym collection of RNA variant scans (doi:10.1093/nar/gkz1192)
